153 variants from a collection of fitness landscapes (doi:10.1126/science.1257360) can be followed below.

The labels stand for the following.
B1: PhoQ; a variant is named by its letters at X, in order, P23837 (parent)
chain: MKKLLRLFFPLSLRVRFLLATAAVVLVLSLAYGMVALIGYSVSFDKTTFRLLRGESNLFYTLAKWENNKLHVELPENIDKQSPTMTLIYDENGQLLWAQRDVPWLMKMIQPDWLKSNGFHEIEADVNDTSLLLSGDHSIQQQLQEVREDDDDAEMTHSVAVNVYPATSRMPKLTIVVVDTIPVELKSSYMVWSWFIYVLSANLLLVIPLLWVAAWWSLRPIEALAKEVRELEEHNRELLNPATTRELTSLVRNLNRLLKSERERYDKYRTTLTDLTHSLKTPLXXLQXXLRSLRSEKMSVSDAEPVMLEQISRISQQIGYYLHRASMRGGTLLSRELHPVAPLLDNLTSALNKVYQRKGVNISLDISPEISFVGEQNDFVEVMGNVLDNACKYCLEFVEISARQTDEHLYIVVEDDGPGIPLSKREVIFDRGQRVDTLRPGQGVGLAVAREITEQYEGKIVAGESMLGGARMEVIFGRQHSAPKDE

The other results are listed elsewhere or left out.

The assay covers variants of B1. As to the kind of experiment: enrichment ratio after two sorts for PhoP signalling (ratio (wild type AVST 3.29)); higher = more functional. Particulars: with PhoP (E. coli).
RSFN: the enrichment ratio is not above 0.25. For LLIL, the enrichment ratio was not above 0.25.

On to WHCG, for which the enrichment ratio is not above 0.25.

With WSCI, the enrichment ratio was not above 0.25. Take SMVV: the enrichment ratio stood at 8.39. Take WNPG: the enrichment ratio was not above 0.25. On to HKML, for which the enrichment ratio was not above 0.25. In the case of TRLH, the enrichment ratio was 6.28. For HKDI, the enrichment ratio is not above 0.25. Consider RDYF, for which the enrichment ratio is not above 0.25.

On to EPTI, for which the enrichment ratio was not above 0.25. On to EGDW, for which the enrichment ratio is not above 0.25. For the variant AKYQ, the enrichment ratio was not above 0.25. Take DNHL: the enrichment ratio was not above 0.25. The value for LACN was not above 0.25. Consider NIEM, for which the enrichment ratio is not above 0.25. Regarding DGYH, the enrichment ratio is not above 0.25. Turning to YQGH, the enrichment ratio is not above 0.25. Take SINC: the enrichment ratio worked out at 4.48.

Take INLT: the enrichment ratio was not above 0.25. With YNSL, the enrichment ratio stood at 1.06. As for WRYL, the enrichment ratio was not above 0.25. In the case of AYTI, the enrichment ratio stood at 0.326. The value for ERIA was not above 0.25. For LAEK, the enrichment ratio was not above 0.25.

Take TSTS: the enrichment ratio came out at 9.31. For MYQM, the enrichment ratio was not above 0.25. As for QRIV, the enrichment ratio is not above 0.25. Take TRWE: the enrichment ratio was not above 0.25.

Take RKRV: the enrichment ratio is not above 0.25.

As to GDMD, the enrichment ratio is not above 0.25. With VDFF, the enrichment ratio is not above 0.25.

In the case of IICR, the enrichment ratio is not above 0.25. Consider EKTL, for which the enrichment ratio is not above 0.25. As to FDRL, the enrichment ratio was not above 0.25. In the case of ELPT it was not above 0.25. Take WLCI: the enrichment ratio was not above 0.25.

IFRE: the enrichment ratio was not above 0.25. Turning to KYCF, the enrichment ratio is not above 0.25. With NYAA, the enrichment ratio was not above 0.25.

Regarding EMTT, the enrichment ratio is not above 0.25. In the case of PNKV it was not above 0.25; in that of HCDP, not above 0.25. In the case of FEIS it was 1.48; in that of IMFV, not above 0.25.

With QSVL, the enrichment ratio is not above 0.25. In the case of NRHE it was not above 0.25; in that of YWIY, not above 0.25; in that of VHVR, not above 0.25. The value for HWHR was not above 0.25; that for QRVT was not above 0.25.

With SKAA, the enrichment ratio turned out to be 1.5. As to KTRE, the enrichment ratio was not above 0.25. Regarding RFIF, the enrichment ratio was not above 0.25. For the variant LHCM, the enrichment ratio was not above 0.25. As for DVWE, the enrichment ratio was not above 0.25. Take IISF: the enrichment ratio is not above 0.25.

In the case of GWTH, the enrichment ratio is not above 0.25. The value for QGCK was not above 0.25; that for GILV was 10.9; that for NQTP was not above 0.25. FMFA: the enrichment ratio is not above 0.25. For QKIH, the enrichment ratio was not above 0.25.

Consider GAQL, for which the enrichment ratio was not above 0.25. For RGLH, the enrichment ratio was not above 0.25. In the case of MASW, the enrichment ratio is not above 0.25.

Take FKDF: the enrichment ratio is not above 0.25. In the case of VATL it was not above 0.25; in that of WLTG, not above 0.25. For the variant YCKW, the enrichment ratio is not above 0.25. In the case of TRQW, the enrichment ratio is not above 0.25.

In the case of YGSA, the enrichment ratio was not above 0.25.

Turning to IRPP, the enrichment ratio is not above 0.25. Regarding RHLS, the enrichment ratio is not above 0.25. In the case of RHFY it was not above 0.25. On to HPED, for which the enrichment ratio was not above 0.25. Turning to IPWD, the enrichment ratio was not above 0.25. For the variant YETV, the enrichment ratio came to 2.22. As for ENSQ, the enrichment ratio is not above 0.25. For the variant CSTL, the enrichment ratio is not above 0.25. As to KGLS, the enrichment ratio was not above 0.25. Regarding WFNR, the enrichment ratio was not above 0.25. For the variant IKAS, the enrichment ratio is not above 0.25. For DCLF, the enrichment ratio was not above 0.25.

Consider MWGQ, for which the enrichment ratio is not above 0.25. Regarding GANH, the enrichment ratio was not above 0.25.

In the case of ETRK, the enrichment ratio was not above 0.25. For the variant AESE, the enrichment ratio was not above 0.25.

For PIQH, the enrichment ratio was not above 0.25. Regarding VCFP, the enrichment ratio is not above 0.25.

With FVRI, the enrichment ratio was not above 0.25. Turning to KFIL, the enrichment ratio is 0.334. The value for GEYN was not above 0.25; that for PVLW was not above 0.25. On to FKVY, for which the enrichment ratio was not above 0.25. With TKTR, the enrichment ratio was not above 0.25.

SFEP: the enrichment ratio is not above 0.25. As for EVGK, the enrichment ratio was not above 0.25. As to ERSH, the enrichment ratio was not above 0.25. Turning to HWRH, the enrichment ratio is not above 0.25. LKPS: the enrichment ratio was not above 0.25. Regarding EIHT, the enrichment ratio is not above 0.25.

For the variant EALF, the enrichment ratio is not above 0.25. In the case of LYEN it was not above 0.25; in that of GGSD, not above 0.25; in that of TYYY, 1.73.

For SNHV, the enrichment ratio is not above 0.25. For YCDN, the enrichment ratio is not above 0.25. On to WPIM, for which the enrichment ratio was not above 0.25.

For the variant FMIT, the enrichment ratio was not above 0.25. For the variant FRPH, the enrichment ratio was not above 0.25. Turning to NASL, the enrichment ratio was not above 0.25. Turning to KIRR, the enrichment ratio is not above 0.25. For PWFI, the enrichment ratio was not above 0.25. Turning to GSQH, the enrichment ratio is not above 0.25. On to DRDH, for which the enrichment ratio is not above 0.25.

For GTGY, the enrichment ratio is not above 0.25.

Turning to GFNM, the enrichment ratio was not above 0.25.

As to YKPQ, the enrichment ratio was not above 0.25. On to YNYT, for which the enrichment ratio was not above 0.25. In the case of DRER it was not above 0.25. As to NIVH, the enrichment ratio is 1.68. The value for NFCI was not above 0.25. In the case of GAGW, the enrichment ratio was not above 0.25. For KGYK, the enrichment ratio is not above 0.25. As to WYAV, the enrichment ratio is not above 0.25.

Turning to ACAL, the enrichment ratio was 5. The value for YWCF was not above 0.25; that for VFRW was not above 0.25; that for HPWA was not above 0.25. For FIWN, the enrichment ratio is not above 0.25. Turning to NCYE, the enrichment ratio was not above 0.25. In the case of MYIW, the enrichment ratio was not above 0.25. DFIG: the enrichment ratio is not above 0.25. For SREN, the enrichment ratio is not above 0.25. For the variant MMHS, the enrichment ratio came to 0.501. Consider SQSG, for which the enrichment ratio came to 6.12. Turning to NNLY, the enrichment ratio was not above 0.25.

On to IKPY, for which the enrichment ratio is not above 0.25.

With FQTI, the enrichment ratio is not above 0.25. Consider MNRD, for which the enrichment ratio is not above 0.25. Turning to KATR, the enrichment ratio is not above 0.25. In the case of QCAP, the enrichment ratio is not above 0.25. As to RKQI, the enrichment ratio was not above 0.25. Take RNML: the enrichment ratio is not above 0.25. The value for NMSN was not above 0.25; that for WACV was not above 0.25; that for FYGP was not above 0.25. In the case of AHLC it was not above 0.25; in that of AYTP, 0.471. In the case of RHRS it was not above 0.25; in that of NTWE, not above 0.25.

In the case of EFDM, the enrichment ratio is not above 0.25.
